Measured values taken from PubChem BioAssay AID270 (DTP/NCI, 2004).
Results filed as inconclusive are left out. For part of its entries the source gives two or more results. Only these are listed. An entry can have further records. Values that stand side by side repeat one measurement across runs, samples, wells, individuals or studies. *1 amine or outer side, *2 acyl side, *3 side chain or, on linkers, in order; H or OH if unused. Where a SMILES comes first, the peptide text is derived from it. Bridges are numbered along the chain shown (N, C = ends). Roman numbers before positions name the chains, in order. [ ]: non-standard residue; d: D form. Actinocin(9to1) = Cc1c2oc3c(C)ccc(C(=O)[*:1])c3nc-2c(C(=O)[*:2])c(N)c1=O; aThr = C[C@H](O)[C@H](N)C(=O)O; NMeV = CN[C@H](C(=O)O)C(C)C; Sar = CNCC(=O)O

Tested on: BDF1 mice, s.c. Lewis lung carcinoma, T/C %
Assay: NCI In Vivo Anticancer Drug Screen. Data for tumor model Lewis Lung Carcinoma (subcutaneous) in B6D2F1 (BDF1) mice
Experimental: The antitumor activity of compounds was measured in mice bearing transplantable tumors. Survival or tumor size were measured and the results are expressed as the measurement made in the treated group (T) divided by the measurement made in the vehicle treated control group (C). The tumor model used in this assay is Lewis Lung Carcinoma (subcutaneous) in B6D2F1 (BDF1) mice

[1] = endpoint: mean tumor weight, dose: 80.0 mg/kg/injection, schedule: Q01DX011 (ip), vehicle: other, higher = larger tumour

## COc1ccc(-c2cc(=O)c3c(OC)c(OC)c(OC)c(OC)c3o2)cc1OC
endpoint: mean tumor weight, dose: 100.0 mg/kg/injection, schedule: Q01DX011 (ip), vehicle: saline, higher = larger tumour
  T/C: 48 % of control and 80 % of control
endpoint: mean tumor weight, dose: 400.0 mg/kg/injection, schedule: Q01DX011 (ip), vehicle: saline, higher = larger tumour
  T/C: 39 % of control and 82 % of control

## CNC=O
endpoint: mean tumor weight, dose: 125.0 mg/kg/injection, schedule: Q01DX011 (ip), vehicle: saline, higher = larger tumour
  T/C: 67 % of control and 113 % of control

## CCCC(Sc1nc(N)nc2nc[nH]c12)C(=O)O (stereo not given)
[1]
  T/C: 55 % of control and 93 % of control

## O=C(O)CCCc1ccc(N(CCCl)CCCl)cc1
endpoint: median survival time, dose: 4.0 mg/kg/injection, schedule: Q01DX009 (ip), vehicle: saline with Tween-80, higher = longer survival
  T/C: 110 % of control and 152 % of control

## C1CN1c1nc(N2CC2)nc(N2CC2)n1
endpoint: median survival time, dose: 1.0 mg/kg/injection, schedule: Q08DX002 (ip), vehicle: saline, higher = longer survival
  T/C: 100 % of control, 106 % of control, 170 % of control

## CO[C@@H]1[C@@H](OC2OC(C)C(OC3CC(C)(O)C(OC(=O)CC(C)C)C(C)O3)C(N(C)C)C2O)[C@@H](CC=O)C[C@@H](C)C(=O)/C=C/C2O[C@H]2C[C@@H](C)OC(=O)C[C@H]1OC(C)=O (stereo not given in full)
endpoint: mean tumor weight, dose: 75.0 mg/kg/injection, schedule: Q01DX011 (ip), vehicle: saline, higher = larger tumour
  T/C: 49 % of control and 81 % of control

## Cc1c2oc3c(C)ccc(C(=O)N[C@@H]4C(=O)N[C@H](C(C)C)C(=O)N5CCC[C@H]5C(=O)N(C)CC(=O)N(C)[C@@H](C(C)C)C(=O)O[C@H]4C)c3nc-2c(C(=O)N[C@@H]2C(=O)N[C@H](C(C)C)C(=O)N3CCC[C@H]3C(=O)N(C)CC(=O)N(C)[C@@H](C(C)C)C(=O)O[C@H]2C)c(N)c1=O (I: [aThr][dV]P[Sar][NMeV] / II: [aThr][dV]P[Sar][NMeV]; ester I:1-I:C, II:1-II:C; linker I:N-II:N via Actinocin(9to1))
endpoint: median survival time, dose: 12.0 micrograms/kg/injection, schedule: Q01DX009 (ip), vehicle: saline, higher = longer survival
  T/C: 100 % of control, 103 % of control, 155 % of control

## N=[N+]=CC(=O)OCC(N)C(=O)O (stereo not given)
endpoint: mean tumor weight, dose: 5.0 mg/kg/injection, schedule: Q01DX011 (ip), vehicle: saline, higher = larger tumour
  T/C: 60 % of control and 100 % of control

## CS(=O)(=O)OCCCCOS(C)(=O)=O
endpoint: mean tumor weight, dose: 25.0 mg/kg/injection, schedule: Q01DX011 (ip), vehicle: carboxymethylcellulose (CMC), higher = larger tumour
  T/C: 61 % of control and 89 % of control

## [Cl][Ni+2][Cl].[NH-]CCN1CC1
endpoint: median survival time, dose: 3.12 mg/kg/injection, schedule: Q01DX009 (ip), vehicle: saline, higher = longer survival
  T/C: 104 % of control and 187 % of control
endpoint: median survival time, dose: 6.25 mg/kg/injection, schedule: Q01DX009 (ip), vehicle: saline, higher = longer survival
  T/C: 106 % of control and 186 % of control

## CC1(C)CCC(NC(=O)N(CCF)N=O)CC1
endpoint: median survival time, dose: 13.0 mg/kg/injection, schedule: Q01DX009 (ip), vehicle: saline with Tween-80, higher = longer survival
  T/C: 118 % of control and 190 % of control

## COc1ccc2c(c1)CC[C@@H]1[C@@H]2CC[C@]2(C)/C(=N\O)CC[C@@H]12
endpoint: mean tumor weight, dose: 10.0 mg/kg/injection, schedule: Q01DX011 (sc), vehicle: steriod suspending solution, higher = larger tumour
  T/C: 112 % of control and 165 % of control
endpoint: mean tumor weight, dose: 25.0 mg/kg/injection, schedule: Q01DX011 (sc), vehicle: steriod suspending solution, higher = larger tumour
  T/C: 109 % of control and 177 % of control
endpoint: mean tumor weight, dose: 100.0 mg/kg/injection, schedule: Q01DX011 (sc), vehicle: steriod suspending solution, higher = larger tumour
  T/C: 44 % of control, 73 % of control, 119 % of control

## COc1cc(O)c2c(c1)Cc1cc(C)cc(O)c1C2=O
endpoint: median survival time, dose: 0.8 mg/kg/injection, schedule: Q01DX009 (ip), vehicle: saline with Tween-80, higher = longer survival
  T/C: 117 % of control and 151 % of control
endpoint: median survival time, dose: 1.6 mg/kg/injection, schedule: Q01DX009 (ip), vehicle: saline with Tween-80, higher = longer survival
  T/C: 117 % of control and 161 % of control

## C[C@]12CC[C@@H]3c4ccccc4CC[C@H]3[C@@H]1CC[C@@H]2O
endpoint: mean tumor weight, dose: 500.0 mg/kg/injection, schedule: Q01DX011 (sc), vehicle: steriod suspending solution, higher = larger tumour
  T/C: 26 % of control and 78 % of control

## CN1CC(=O)NC1=O
endpoint: mean tumor weight, dose: 250.0 mg/kg/injection, schedule: Q01DX011 (ip), vehicle: saline, higher = larger tumour
  T/C: 60 % of control, 75 % of control, 113 % of control
endpoint: mean tumor weight, dose: 500.0 mg/kg/injection, schedule: Q01DX011 (ip), vehicle: saline, higher = larger tumour
  T/C: 53 % of control, 76 % of control, 85 % of control
endpoint: mean tumor weight, dose: 1000.0 mg/kg/injection, schedule: Q01DX011 (ip), vehicle: saline, higher = larger tumour
  T/C: 36 % of control, 96 % of control, 105 % of control

## CC(=O)OCC(=O)[C@@]1(O)CC[C@H]2[C@@H]3C[C@H](C)C4=CC(=O)C=C[C@]4(C)[C@@]3(Br)[C@@H](O)C[C@@]21C
endpoint: mean tumor weight, dose: 2.25 mg/kg/injection, schedule: Q01DX011 (sc), vehicle: steriod suspending solution, higher = larger tumour
  T/C: 48 % of control and 82 % of control

## C[C@@H]1CC[C@@]2(NC1)O[C@H]1C[C@H]3[C@@H]4CC=C5C[C@@H](O)CC[C@]5(C)[C@H]4CC[C@]3(C)[C@H]1[C@@H]2C
endpoint: mean tumor weight, dose: 11.1 mg/kg/injection, schedule: Q01DX011 (ip), vehicle: carboxymethylcellulose (CMC), higher = larger tumour
  T/C: 58 % of control, 66 % of control, 87 % of control
endpoint: mean tumor weight, dose: 27.0 mg/kg/injection, schedule: Q01DX011 (sc), vehicle: steriod suspending solution, higher = larger tumour
  T/C: 53 % of control and 167 % of control

## Cn1c(O)c(N=NC(N)=S)c2ccccc21
endpoint: mean tumor weight, dose: 30.0 mg/kg/injection, schedule: Q01DX011 (ip), vehicle: carboxymethylcellulose (CMC), higher = larger tumour
  T/C: 45 % of control and 83 % of control
endpoint: mean tumor weight, dose: 60.0 mg/kg/injection, schedule: Q01DX011 (ip), vehicle: carboxymethylcellulose (CMC), higher = larger tumour
  T/C: 53 % of control and 121 % of control
endpoint: mean tumor weight, dose: 240.0 mg/kg/injection, schedule: Q01DX011 (ip), vehicle: carboxymethylcellulose (CMC), higher = larger tumour
  T/C: 41 % of control, 55 % of control, 82 % of control

## Cc1c(N)nc([C@H](CC(N)=O)NC[C@H](N)C(N)=O)nc1C(=O)N[C@H](C(=O)N[C@H](C)[C@@H](O)[C@H](C)C(=O)N[C@H](C(=O)NCCc1nc(-c2nc(C(=O)NCCC[S+](C)C)cs2)cs1)[C@@H](C)O)C(OC1OC(CO)C(O)C(O)C1OC1OC(CO)C(O)C(OC(N)=O)C1O)c1cnc[nH]1 (stereo not given in full)
endpoint: median survival time, dose: 16.0 mg/kg/injection, schedule: Q01DX009 (ip), vehicle: saline, higher = longer survival
  T/C: 114 % of control and 159 % of control

## CCN(CC)CC(C)Nc1ccc(C)c2sc3ccccc3c(=O)c12 (stereo not given)
[1]
  T/C: 34 % of control and 122 % of control
